Test results from patent US20210077638A1.

B1: MET x MET bispecific antibody H4H14639D (unconjugated) (bispecific antibody, V domains shown)
VH 1: EVQLVESGGGLVQPGTSLRLSCAASGFTFDDYAMHWVRQAPGKGLEWVSGITWNSYNIDYADSVKGRFTISRDNAKNSLYLQMNSLRAEDTALYYCAKDDDYSNYVYFDYWGQGTLVTVSS
VH 2: EVQLVESGGGLVQPGGSLRLSCAASGFIVTTNYMTWLRQAPGKGLEWVSLIYSSGHTYYADSVKGRFTISRHNSKNTLYLQMDSLRAEDTAVYYCASAFAADVFDIWGQGTMVTVSS
VL: [here about 100 residues without letters]
B2: H4H14639D-DFO DAR 0.59 (bispecific antibody, V domains shown)
VH 1: B1 VH 1
VH 2: B1 VH 2
VL: [here about 100 residues without letters]
modifications: p-SCN-Bn-DFO on primary amines, sites not stated; average DAR 0.59 per antibody
B3: H4H14639D-DFO DAR 1.02 (bispecific antibody, V domains shown)
VH 1: B1 VH 1
VH 2: B1 VH 2
VL: [here about 100 residues without letters]
modifications: p-SCN-Bn-DFO on primary amines, sites not stated; average DAR 1.02 per antibody
B4: H4H14639D-DFO DAR 2.14 (bispecific antibody, V domains shown)
VH 1: B1 VH 1
VH 2: B1 VH 2
VL: [here about 100 residues without letters]
modifications: p-SCN-Bn-DFO on primary amines, sites not stated; average DAR 2.14 per antibody

Biological target: hMET.mmh (human) (UniProt P08581)
Assay: SPR Biacore T-200, antibody captured by anti-human Fc, 90 nM hMET.mmh, 25 C

Antigen Bound [RU/nm]	Binder
26.4	B1
26.7	B2
47	B3
48.4	B4

Biological target: hMET.mmh (human) (UniProt P08581)
Assay: SPR Biacore T-200, antibody captured by anti-human Fc, hMET.mmh injected, 25 C

Kd [nM]	koff [s⁻¹]	kon [M⁻¹ s⁻¹]	t1/2 [min]	Binder
8.36	0.00272	325000	4.25	B1
7.9	0.00239	302000	4.84	B2
6.47	0.00183	284000	6.3	B3
4.38	0.00162	369000	7.14	B4
